In all, about 310,000 compounds went through this assay and about 14,000 (4.5%) showed an effect of 50% or more. Effects have a minus sign here. The list shows a part of the results.
Each compound was assayed against human ether-à-go-go-related gene (hERG) potassium channel (human, UniProt Q12809) (assay: primary screen, population patch clamp on CHO cells stably expressing hERG).
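Note: peak tail current of the secondary pulse compared with the same well before compound.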

human ether-à-go-go-related gene (hERG) potassium channel, sequence (Q12809 whole entry, looked up): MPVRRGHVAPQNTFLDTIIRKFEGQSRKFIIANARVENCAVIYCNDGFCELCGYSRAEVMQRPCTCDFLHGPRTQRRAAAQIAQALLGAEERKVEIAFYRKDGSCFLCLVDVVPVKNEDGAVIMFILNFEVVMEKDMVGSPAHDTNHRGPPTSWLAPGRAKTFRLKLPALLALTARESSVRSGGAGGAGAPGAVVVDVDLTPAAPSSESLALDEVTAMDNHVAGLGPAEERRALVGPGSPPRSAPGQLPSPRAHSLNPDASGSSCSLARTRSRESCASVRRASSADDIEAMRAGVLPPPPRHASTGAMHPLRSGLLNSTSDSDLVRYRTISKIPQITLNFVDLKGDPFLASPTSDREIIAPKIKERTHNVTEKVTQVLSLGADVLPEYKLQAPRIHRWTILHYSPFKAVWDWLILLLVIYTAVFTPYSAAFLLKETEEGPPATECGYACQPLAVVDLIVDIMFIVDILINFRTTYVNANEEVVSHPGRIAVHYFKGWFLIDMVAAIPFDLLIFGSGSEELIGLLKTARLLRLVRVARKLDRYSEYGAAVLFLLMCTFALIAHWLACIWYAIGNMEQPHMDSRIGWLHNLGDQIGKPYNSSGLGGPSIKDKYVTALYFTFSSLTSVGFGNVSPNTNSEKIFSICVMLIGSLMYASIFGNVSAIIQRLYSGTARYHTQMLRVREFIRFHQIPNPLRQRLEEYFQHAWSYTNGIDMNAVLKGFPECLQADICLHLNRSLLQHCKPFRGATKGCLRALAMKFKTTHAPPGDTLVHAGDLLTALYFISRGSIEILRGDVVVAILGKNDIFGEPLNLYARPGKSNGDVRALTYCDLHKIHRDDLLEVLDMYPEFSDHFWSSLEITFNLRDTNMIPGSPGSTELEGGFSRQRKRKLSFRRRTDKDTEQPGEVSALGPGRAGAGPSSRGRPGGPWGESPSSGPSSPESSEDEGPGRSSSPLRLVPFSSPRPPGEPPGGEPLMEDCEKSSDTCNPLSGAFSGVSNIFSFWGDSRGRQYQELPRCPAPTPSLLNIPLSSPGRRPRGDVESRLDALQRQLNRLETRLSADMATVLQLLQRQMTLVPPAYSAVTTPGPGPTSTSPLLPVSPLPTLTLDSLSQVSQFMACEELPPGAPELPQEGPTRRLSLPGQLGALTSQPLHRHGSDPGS

SMILES | hERG current change (%, negative = inhibition) at 10uM
CC(C)[C@H]1C=C(C(=O)O)O[C@@H](OCCCCO)C1 | 12.1%
CC(C)CNC(=O)c1ccc(Cl)c(NC(=O)COc2ccccc2)c1 | 6.97%
CSCCC(NS(=O)(=O)c1cccc(C(F)(F)F)c1)C(=O)N(C)Cc1ccc2c(c1)OCCO2 (stereo not shown) | -8.66%
O=C(CN1CCc2ccccc2C1)Nc1ccccc1C(=O)NC1CC1 | -24.5%
O=C(CCNC(=O)c1ccccc1)NCC1CCCCC1 | 4.32%
O=C(NCCO)c1cccc2c1C(=O)c1ccccc1-2 | -1.93%
N#C/C(=N\Nc1ccc(Cl)cc1)C(=O)c1ccccc1 | 13.3%
COc1ccccc1NC(=S)NN1CCN(C)CC1 | -10.6%
COC(=O)C1=CN(c2ccc(F)cc2)C=C(C(=O)OC)C1c1cccc(Br)c1 | 10.1%
COc1ccc(CCNC(=O)C(C(=O)c2ccccc2)n2cc(Cl)ccc2=O)cc1OC (stereo not shown) | 7.31%
CCc1noc(C)c1C(=O)Nc1nc(-c2ccc(NC(C)=O)cc2)cs1 | 1.49%
CCOC(=O)N1CCN(C(=O)CN(c2cccc(C(F)(F)F)c2)S(=O)(=O)c2ccccc2)CC1 | -43.6%
COC(=O)CCn1nnc(-c2ccc(C)cc2)n1 | 12.3%
O=C(Cc1ccccc1)NC1CCS(=O)(=O)C1 (stereo not shown) | 5.34%
Cc1ccc(S(=O)(=O)CC(N)=O)cc1 | -6.1%
CC(OC(=O)c1ccc(S(=O)(=O)N2CCOCC2)cc1)c1ccccc1 (stereo not shown) | -28.9%
Cc1ccccc1NC(=O)NC1(C(=O)N2CCCC2)CCCCC1 | 9.33%
Cc1ccc(C(=O)Nc2ccc(C(=O)O)cc2)cc1S(=O)(=O)NCc1ccccc1 | 19.5%
Cn1c(=O)c2c(nc(CN3CCN(Cc4ccccc4)CC3)n2Cc2cccc(Cl)c2)n(C)c1=O | -59.2%
COc1ccc(NC(=O)CN(C)C(=O)CCCc2c[nH]c3ccccc23)cc1 | -11.7%
COc1ccc(OC)c(NC(=O)C2CC2c2ccccc2)c1 (stereo not shown) | -14.9%
CC(C)CC1Nc2ncnc(N3CCCCC3)c2N(Cc2ccccc2)C1=O.O=C(O)C(F)(F)F (stereo not shown) | -22.8%

SMILES | hERG current change (%, negative = inhibition) at 10uM
CCOC(=O)CCc1c(C)n(CC)c2cc(-c3ccccc3OC)nn2c1=O | -17.7%
COc1ccc(N(CC(=O)NCc2cccnc2)S(=O)(=O)c2ccc(C)c([N+](=O)[O-])c2)cc1 | -36.6%
CC(C)Cn1c(N)c(C(=O)COC(=O)c2ccc3ccccc3n2)c(=O)n(C)c1=O | -59.9%
COc1ccc(/C(O)=C2/C(=O)C(=O)N(c3ccccn3)C2c2ccc(OC)c(OC)c2)cc1 (stereo not shown) | -0.694%
COc1ccc(NC(=O)CSCC(=O)Nc2ccc(S(=O)(=O)N3CCOCC3)cc2)cc1 | -11.2%
COC(=O)C1=C(C)N(CCc2ccccc2)C(=O)C1 | 2.86%
Cc1ccc2c(c1)N(C(=O)CCC(=O)NCc1cccnc1)CC(C)O2 (stereo not shown) | -30.8%
CCOC(=O)C1(CC2CC2)CCN(Cc2cn[nH]c2-c2ccccc2)CC1 | -79.5%
CCCn1c(N)c(N(CCOC)C(=O)c2cc3ccccc3cc2OC)c(=O)[nH]c1=O | 5.95%
N#C/C(=N\Nc1ccc(Cl)cc1)C(=O)c1ccsc1 | 32.4%
COc1ccccc1C(=O)N1CCN(CCc2ccccc2)CC1 | -48.8%
CCc1cc2c(cc3c(=O)n(CC(=O)N4CCN(C)CC4)ncn32)s1 | -14.3%
COc1ccc(-c2[nH]c(-c3cccc(OC)c3)nc2SCC(=O)NC2CCCC2)cc1 | -40%
Cn1ncc(Br)c1C(=O)N1CCN(C(=O)c2ccco2)CC1 | -1.4%
Fc1ccccc1NC(=S)Nc1cccc2cnccc12 | 46.8%
COc1ccc(Oc2c(C)oc3cc(OC(=O)N4CCOCC4)ccc3c2=O)cc1 | -2.02%
Cc1cc(C)n2nc(SCC(=O)N(CC(C)C)c3c(N)n(CC(C)C)c(=O)[nH]c3=O)nc2n1 | 11.2%
Clc1ccccc1-c1nnc2sc(-c3ccncc3)nn12 | -3.1%
CC(C)=CC(=O)N1CC[C@@H](N2CCN(c3ccccc3F)CC2)[C@H](O)C1 | 1.23%
Cc1cccc(NC(=S)Nc2ccc(Oc3ccccc3)cc2)n1 | 13.1%
O=C(Cc1cn2ccsc2n1)NCCc1ccc(F)cc1 | 10.6%

— PMC4336329 (PLoS ONE, 2015)
